Results published in the supplement of paper PMC11417369.
± gives the standard deviation of the averaged measurements. The list shows a part of the results.

System: PfAP2-I AP2 domain 3 (GST-tagged)
Assay: gcPBM binding intensity (ln(normalized median fluorescence intensity)); higher = stronger DNA binding
In short: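 An Agilent 4 × 180k array of primer-extended double-stranded 36-bp intergenic genomic probes, with negative controls, was incubated for 1 h with GST-tagged P. falciparum DNA-binding domains expressed in E. coli. Alexa488 anti-GST antibody detected bound protein, scanned at 488 nm. Binding intensity is the highest Masliner-normalised natural-log median intensity across replicate spots of either probe orientation.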

| Sequence | gcPBM binding intensity (ln) |
| --- | --- |
| TATACATATTTATACACACACACATATATTTATATA [CACACA_site6727] | 7.95 ± 0.34 |
| ATATATATATATATATGTACATATTACATTACTTAT [XGTACX_site749] | 9.38 ± 0.75 |
| AAAAAGAAAAAAAACACACACAAATATAAATAAATA [CACACA_site1183] | 7.42 ± 0.71 |
| ATAAAACAAGCAAATCGTACAAAAGGATAATATATA [XGTACX_site5592] | 7.84 ± 0.55 |
| ATATATATTTAAGAGGGTACAAAAATTTATGAGCAT [XGTACX_site6156] | 8.07 ± 0.61 |
| TTAGGTAGAAAAAAGACACACACATTATATATATAT [CACACA_site8016] | 9.15 ± 0.014 |
| ATGTATGGTTTATATGTTCATTTGTTCACCTATTTA [CACACA_negctrl_site1533] | 7.86 ± 0.73 |
| AAAAAAAAAAAAAACACACACACACCCATACCCATA [CACACA_site5577] | 8.47 ± 0.49 |
| TCTTTGGTAATATATATGTATAAATATAAATATATA [CACACA_negctrl_site1566] | 7.56 ± 0.48 |
| ATATATATATATGTTAGTACATAACAAGTGTGCATA [XGTACX_site1527] | 9.36 ± 0.11 |
| GTATATATTTCCAGAAGTACTTATTTTTATGTATGT [XGTACX_site4079] | 7.99 ± 0.42 |
| AATCTATATTAATACACACACACATATATTTATATA [CACACA_site7732] | 8.13 ± 0.33 |
| TTTATTTTGACAGATTGTACACTTTATACATGTTTT [XGTACX_site2356] | 7.89 ± 0.55 |
| TGAAAAAAGAAAAATACACACATATAACATAATATA [CACACA_site7126] | 7.57 ± 0.57 |
| AAAAATGCCAGAAAACGTACTCGGATTTTCTAATAT [XGTACX_site6552] | 7.41 ± 0.62 |
| TGATTACATATGATGTGTACCTAATTTTGTTTACAC [XGTACX_site7032] | 7.69 ± 0.51 |
| AAAACACGCGGACACACACACACACCCACCCATATA [CACACA_site8688] | 8.03 ± 0.47 |
| TTTTAATATTTTGCCTGTACATAAAAGTGAGAAGAT [XGTACX_site2503] | 8.39 ± 0.4 |
| TTATATTTATTGATATGTACATATTATAATTAATTA [XGTACX_site586] | 7.75 ± 0.32 |
| AAATAGTTCATAAAAAGTACAAAATTTTTATCCGTA [XGTACX_site2796] | 7.61 ± 0.49 |
| ATCATTCATTTAACAACACACAACATATTTATCATA [CACACA_site1041] | 8.02 ± 0.53 |
| TATAAAGGTTGGTACTGTACAATATAAGAAAAAAAA [XGTACX_site435] | 8.01 ± 0.57 |

| Sequence | gcPBM binding intensity (ln) |
| --- | --- |
| TATATATTATATAAGAGTACATATAATTATAGTTTT [XGTACX_site5039] | 7.71 ± 0.52 |
| GTGTGGAGTTACAAAGAGGAGAACCTCACAGTAATC [CACACA_negctrl_site527] | 8.03 ± 0.12 |
| AAATTCGTTATAAAAACATGCAACGATCAACATTGT [TGCATGCA_site844] | 7.59 ± 0.57 |
| TTACTCTTTATATAATGTACATATATATATATATTA [XGTACX_site2624] | 8 ± 0.48 |
| TTTTTTATATTGTGATGTACAAATTTTAAAATGTAG [XGTACX_site1875] | 8.01 ± 0.17 |
| ATATATATATATATAATACACACTTATGAAATGTCT [CACACA_site1827] | 9.4 ± 0.28 |
| TTATGTGATAAAAAAAAAATACAACAAAGTTAAATA [GTGCAC_negctrl_site36] | 7.46 ± 0.64 |
| TTACACATATTTTTAATTATTCTGAATTCAAAAAAA [CACACA_negctrl_site1706] | 7.62 ± 0.43 |
| GTAATATTAAAATATACACACATAGAATATATATAT [CACACA_site4391] | 8.96 ± 0.042 |
| ATAATCATAAAATAAACACACATATATAAATATATT [CACACA_site276] | 7.57 ± 0.36 |
| AAAAAAATATAAATACGTACATATATATATATATAT [XGTACX_site432] | 9.39 ± 0.28 |
| CTATTCTATTTTTATTGTACATATATATAATTTGAA [XGTACX_site389] | 8.04 ± 0.41 |
| ATATAATGGCTAAATAGTACAATATAATATTTTTTA [XGTACX_site8922] | 7.55 ± 0.48 |
| ACACATGAATATTGTAGTACGGCAATTAATATAATA [XGTACX_site4589] | 7.74 ± 0.43 |
| TGGAATAATACGCGTACACACATATAAATATTAATA [CACACA_site6211] | 8.16 ± 0.13 |
| AGAAAGGAAAAAACCTCACACATGCTTTTAATAGTA [CACACA_site4602] | 7.49 ± 0.7 |
| AAAAATTCATTTTTATGTACGTACAAATTCTTCGTT [XGTACX_site2471] | 8.17 ± 0.28 |
| AGTAAATTATATATCTGTACATATATATATGTGTAT [XGTACX_site5519] | 7.84 ± 0.58 |
| TTTTAAAAAAATATAATACACACCAAAAATATGCAC [CACACA_site2131] | 9.62 ± 0.014 |
| ACTATATATATAAGTGCATGTTCATTATACCTAAAG [TGCATGCA_site696] | 8.93 ± 0.57 |
| CTCACAAATGAATACACACAAACATATATATTTATA [CACACA_site1620] | 7.71 ± 0.32 |
| TATTGAAAGTGAATTATAACATTAAAAATATATATA [TGCATGCA_negctrl_site566] | 7.55 ± 0.59 |

| Sequence | gcPBM binding intensity (ln) |
| --- | --- |
| CAATATAAAAGACACACACACAAACATATATTTATA [CACACA_site7697] | 7.74 ± 0.47 |
| TGAATATGTAAATGCACACCAAAAAAAAAAAAAAAA [CACACA_site3566] | 9.86 ± 0.52 |
| GAAGGAAATAAATCAACACACATATATTATAGATAT [CACACA_site7095] | 7.54 ± 0.61 |
| ATAATGTAAAATAAATGTACGCAATATATAAAAAAT [XGTACX_site5747] | 8.21 ± 0.39 |
| AAAAAATTTTAATATGCATGTAATTTTGCTTTTTCA [TGCATGCA_site1044] | 7.92 ± 0.35 |
| TAATATAGGGGTGTTCAAATAAATTTTGTTATTTTT [CACACA_negctrl_site1203] | 7.96 ± 0.54 |
| AGCACGCACAGACACACACACATATTTATATTTATA [CACACA_site6291] | 8.22 ± 0.27 |
| ACCTATTTCAAACACACACACACACCCACAAACATA [CACACA_site977] | 8.46 ± 0.4 |
| ACGAATATAGGATGTTTGCACTGTACCAATAAATGA [GTGCAC_site9808] | 9.03 ± 0.35 |
| TTCTTAATACAAATATGTACATATATATATATATAT [XGTACX_site757] | 9.21 ± 0.49 |
| AATAGAAAAAAAAAATGTACAAAATGTTTATAAAAA [XGTACX_site4635] | 7.66 ± 0.77 |
| TCATTTTAAGGAAAAAGTACAAAATAATATGTTCCT [XGTACX_site1903] | 7.54 ± 0.57 |
| GATGTGTAAATAAGGATATATAACAATCAACAAAAC [XGTACX_negctrl_site494] | 8.07 ± 0.47 |
| AAATGAATATAAAATATACACACTTATATATTGAAT [CACACA_site202] | 7.41 ± 0.4 |
| AAATTACCCTTGTGTACACATATATTATCTGTATTA [CACACA_site4514] | 8.42 ± 0.51 |
| AATATTCAATATAAAGTGCATTATTGTGCCCCTAAT | 11.3 ± 0.64 |
| GTTATACATTTGAAAAGTACTCATGATTTTTTTTTT [XGTACX_site8177] | 7.75 ± 0.54 |
| ATAAAAATCAAAAAAAATACATAATAGTAATAATAA [GTGCAC_negctrl_site481] | 7.71 ± 0.66 |
| TTTTTATTGTTATACTTATATTATTTTATGATTAAA [XGTACX_negctrl_site262] | 7.83 ± 0.47 |
| AAATAGAAAAAATATACACACACTTATTAAATAAAA [CACACA_site3313] | 7.76 ± 0.53 |
| AAATAATAAAGTATAACACACATATTTATTTATATA [CACACA_site7822] | 7.47 ± 0.46 |
| AAAATTAAAAAAATATGTACTTATGGGTAACATCAT [XGTACX_site5548] | 7.62 ± 0.43 |

| Sequence | gcPBM binding intensity (ln) |
| --- | --- |
| CTGATATATTATTTATCTGAATATATTAATATGTAT [GTGCAC_negctrl_site82] | 7.33 ± 0.52 |
| ATAAAATTATTATATACATGCAAAATTAATATATTG [TGCATGCA_site507] | 7.66 ± 0.64 |
| TATCTTCATATATGGTGTACAGATTTTTTTTTTTTT [XGTACX_site5545] | 7.92 ± 0.23 |
| TTTCTTTTTTTGGGCACACAAAATTTTCTCATTTTA [CACACA_site68] | 8.22 ± 0.59 |
| ATTATATAATAATGCATGCACCTTATTTTCATTTCA [GTGCAC_site9922] | 9.13 ± 0.45 |
| AAAATAAAAAAAATGAATTAGTTAAATGAAAAATAA [CACACA_negctrl_site1294] | 7.34 ± 0.52 |
| TGAATAAATAAACACACACACATATATATATCTGTA [CACACA_site4184] | 7.59 ± 0.4 |
| AAGGATAATATATTAGAACACACATATATATGTAAA [CACACA_site7942] | 7.69 ± 0.62 |
| TTTATATAAAATTATTGTACAGTTTTAATATTTTAA [XGTACX_site6807] | 7.57 ± 0.43 |
| TACATACACAAATACACACACAAATACATACACAAA [CACACA_site704] | 7.92 ± 0.18 |
| TAAACAAATAAATATTGTACATTTTTTCCTTTTAAT [XGTACX_site5594] | 7.38 ± 0.39 |
| CACAGACACGGACACACACACATATATAATATATAT [CACACA_site4495] | 8.13 ± 0.28 |
| AAGATATGAACATTTTGTACTTAAAAATTCAATATT [XGTACX_site7103] | 7.46 ± 0.47 |
| ATATATTTATTTATATGTACATATTATATATTATAG [XGTACX_site3371] | 7.75 ± 0.29 |
| GATTATACAAAATATACACACGTGTACAGAAATATT [CACACA_site8305] | 7.99 ± 0.45 |
| TTATATTAATTTTGTTGTACTATTTGTGCATTAAAT [XGTACX_site4790] | 11.1 ± 0.78 |
| AATATATAAATGTTGTGTACTAAGCAATATATTTTA [XGTACX_site2483] | 7.84 ± 0.44 |
| ATTCGTCACATTTTTTGATATATATATATATATATA [CACACA_negctrl_site1785] | 9.37 ± 0.33 |
| TAAAAAATATAAACTGCACACACACTAATAAAGAAA [CACACA_site8119] | 8.75 ± 0.13 |
| GCTTATTAATATCATACACACATAGATATATTTATA [CACACA_site3104] | 8.03 ± 0.45 |
| CTATTATCGGTTCCTACACACAAATATATATGTCTA [CACACA_site3579] | 8.1 ± 0.57 |
| ATATAGTTGTCATATTGTACACTTTAGGGTTGGTTA [XGTACX_site7339] | 7.92 ± 0.25 |
